Reference: ChEMBL document CHEMBL1201862, “PubChem BioAssay data set” (2004)

Each compound was assayed on NCI-H322M (assay: NCI-60 cell line screen, 48 h).

| Compound | GI50 |
| --- | --- |
| C(=N/Nc1ccccn1)/c1cccnc1 | inactive: > 100 µM |
| CCN1CCC(O)(/C=C/c2ccc(C(C)C)cc2)C(C(=O)/C=C/c2ccc(C(C)C)cc2)C1 (configuration not stated) | inactive: 3.78 µM |
| N=C(N)N/N=C/c1c(-c2ccc([N+](=O)[O-])cc2)nc2sccn12 | inactive: 1.74 µM |
| COc1cc2c[n+](C)c3c4ccccc4ccc3c2cc1OC.COc1cc2cnc3c4ccccc4ccc3c2cc1OC | inactive: 10 µM |
| COC(C/C(=C/CO[Si](C(C)C)(C(C)C)C(C)C)C(=O)Nc1ccccc1I)OC | inactive: 48.4 µM |
| COc1ccc(/N=C(/[N-]n2c(=O)c(C)nn(C)c2=S)N(c2ccc(OC)cc2)c2n[n+]3c(=O)c(C)nn(C)c3s2)cc1 | inactive: > 100 µM |
| Cc1[nH]c2ccccc2c1C(=O)CC1(O)C(=O)Nc2c(Cl)cc(Cl)cc21 (configuration not stated) | inactive: 54.8 µM |
| O=[N+]([O-])c1ccccc1S(=O)(=O)c1cc(Cl)cc2c1NCCC2 | inactive: > 100 µM |
| CCOC(=O)N1CCc2cc(OC)c(OC)c3c2C1CC3=O (configuration not stated) | inactive: > 100 µM |
| CCOC(=O)[C@H]1Nc2ccc(O)cc2C2c3ccccc3CC21 (some centres not stated) | inactive: > 100 µM |
| O=P(c1ccccc1)(c1ccccc1)C1CC=C2CCCCCC2C1 (configuration not stated) | inactive: 25.3 µM |
| CCOC(=O)C1(C#N)C(c2ccccc2)CC(O)(c2ccc(Cl)cc2)C(C(=O)c2ccc(Cl)cc2)C1c1ccccc1 (configuration not stated) | inactive: > 100 µM |
| COc1cc(C=O)cc(/C=N/N=C/c2ccccc2O)c1O | inactive: 30.2 µM |
| O=C1CN(c2ccccc2)C(=O)CN1NCNN1CC(=O)N(c2ccccc2)CC1=O | inactive: > 100 µM |
| Cc1ccc(S(=NS(=O)(=O)c2ccc(C)cc2)c2ccc(C)cc2)cc1 | inactive: > 100 µM |
| CCOP(=O)(CC1CC(O)(CNc2cc(Cl)nc(N)n2)C1)OCC (configuration not stated) | inactive: > 100 µM |
| CC(C)CCNC(=O)c1ccc(CNC(=O)/C=C/c2csc(-c3ccccc3)n2)cc1 | inactive: > 100 µM |
| Cc1cccc2c(N)c3cccc(C(=O)NCC[N+](C)(C)Cc4ccc(S(C)(=O)=O)cc4)c3nc12 | inactive: 53.2 µM |
| CCCNC(=O)c1cc(OC)c(OC)cc1NC(=O)C12CC3CC(CC(C3)C1)C2 | inactive: 17 µM |
| CC(=O)c1ccc(NC(=O)C(=O)C(C(=O)c2ccc(Cl)c(Cl)c2)C2OC(=O)c3ccccc32)cc1 (configuration not stated) | inactive: 24.9 µM |
| COC1/C=C/C(C)C(C(C)C(OC)C(C)CCC(=O)C(C)C(C/C=C/N(C)C=O)OC)OC(=O)C=CC2OC2(C)CC(OC)C(OC)C2=CC(=O)O[C@@H](C(C)C(OC)CC(OC)/C=C/C(C)C(O)C1)[C@H]2O (some centres not stated) | active: 0.0142 µM |

| Compound | GI50 |
| --- | --- |
| Cc1cc(NCCCCCCNc2cc(C)nc3ccc(Cl)cc23)c2cc(Cl)ccc2n1 | inactive: 30.1 µM |
| CN(C)C(=O)C(NCCO)c1ccccc1 (configuration not stated) | inactive: > 100 µM |
| Cc1ccccc1C(C#N)/C(=N/NC(=O)C(=O)NN)C(=O)Nc1cccc(C(F)(F)F)c1 (configuration not stated) | inactive: > 100 µM |
| Cc1nn(C(=O)Cc2ccccc2)c2c1C(c1ccc(N(C)C)cc1)SC(=N)N2 (configuration not stated) | inactive: > 100 µM |
| COC(=O)C1=C(OC(=O)c2ccccc2)C(C(=O)OC)[C@@]2(O)[C@@H](C(=O)OC)[C@H](C)C[C@@H]1[C@@H]2C(=O)OC (some centres not stated) | inactive: 23.6 µM |
| COc1ccc2c(c1)CCN1CCc3cc(OC)c(OC)cc3CC21 (configuration not stated) | inactive: > 100 µM |
| O=C(O)CCNCCCCNCCC(=O)O | inactive: > 100 µM |
| COc1ccc(NC(=O)CC/C(CC(=O)C(C)(C)C)=N\NC(=O)C(N)=O)cc1 | inactive: > 100 µM |
| CCOC(=O)c1cc(Br)c(-c2onc(C)c2Br)[nH]1 | inactive: 49.7 µM |
| COc1cc(S(=O)(=O)Nc2ccc(-c3csc(/N=C\c4cccs4)n3)cc2)ccc1Cl | inactive: 63 µM |
| C=CNC(=O)NC(=O)CSc1nc(=O)c(-c2ccccc2NC(=O)C(F)(F)F)n[nH]1 | inactive: > 100 µM |
| O=c1cc(-c2ccccc2)nc(/C=C(\O)c2ccncc2)n1-c1ccccc1 | inactive: > 100 µM |
| CCC1=CC(OCc2ccccc2)C(CCN(Cc2ccccc2)C(=O)OCc2ccccc2)C1 (configuration not stated) | inactive: 19.4 µM |
| Cc1ccc2c3c1O[C@H]1c4[nH]c5ccccc5c4C[C@@]4(O)[C@@H](C2)N(C)CC[C@]314 | inactive: 15.7 µM |
| CCc1cccc(CC)c1NC(=O)C(C#N)C1=C(Cl)C(=O)c2ccccc2C1=O (configuration not stated) | inactive: 19.8 µM |
| CCOc1ccc2ccc3cccnc3c2n1 | inactive: 40.3 µM |
| Cc1ccc(C(=O)O)c(/C=C2\Cc3ccc(C)cc3C2=O)c1 | inactive: 55 µM |
| CC1CC[C@@]2(OC1)OC1C[C@H]3[C@@H]4CCC5CC(O)CC[C@]5(C)[C@H]4C/C(=N\N(C)C)[C@]3(C)C1[C@@H]2C (some centres not stated) | inactive: 21.2 µM |
| COC1/C=C\C=C(/C)C(=O)NC2=CC(=O)C=C(C2=O)C(OC)C(C)CC(OC)C(OC)C(C)/C=C(/C)C1OC(N)=O (configuration not stated) | inactive: 16.2 µM |
| Nc1nc(SCCC/C=C/I)nc2c1ncn2C1OC(COP(=O)(O)O)C(O)C1O (configuration not stated) | inactive: > 100 µM |
| C=C1CC[C@@]2(OC1)OC1C[C@H]3[C@@H]4CC=C5C[C@@H](O)CC(OC6OCC(OC(=O)[C@@H](O)[C@@H](C)CC)C(OC(C)=O)C6OC6OC(C)C(O)C(O)C6O)[C@]5(C)[C@H]4CC[C@]3(C)C1[C@@H]2C (some centres not stated) | inactive: 2.38 µM |

| Compound | GI50 |
| --- | --- |
| COc1cc2oc(=O)cc(C)c2cc1OC | inactive: > 100 µM |
| COc1cc(=O)oc(/C=C/C=C/C=C/C(C)=C\C2(C)OC(C)C(C)(O)C2O)c1C (configuration not stated) | inactive: > 100 µM |
| COc1ccc(OC)c2cc(C3(C)SCCCS3)ccc12 | inactive: > 100 µM |
| CC(C)C(/C=C/c1ccccc1)=N\NC(=O)N/N=C(/C=C/c1ccccc1)C(C)C | inactive: 39 µM |
| O=c1c2c([N+](=O)[O-])cccc2nc2[nH]c3ccccc3n12 | inactive: 18.9 µM |
| CC(=O)NNC(=O)C1CCCCN1 (configuration not stated) | inactive: > 100 µM |
| C/C(Cl)=N\OC(=O)Nc1ccc([N+](=O)[O-])cc1 | inactive: > 100 µM |
| OC(c1cc2ccc(C(F)(F)F)cc2c2cc(C(F)(F)F)ccc12)C1CCCCN1 (configuration not stated) | inactive: 2.01 µM |
| COc1cc([C@@H]2c3cc4c(cc3[C@@H](/N=C/c3ccc(C(=O)O[C@H]5C[C@H]6OC[C@@]6(OC(C)=O)[C@H]6[C@H](OC(=O)c7ccccc7)[C@]7(O)C[C@H](OC(=O)[C@H](OC(=O)c8ccc(/C=N/[C@@H]9c%10cc%11c(cc%10[C@@H](c%10cc(OC)c(O)c(OC)c%10)[C@H]%10C(=O)OC[C@@H]%109)OCO%11)cc8)[C@@H](NC(=O)c8ccccc8)c8ccccc8)C(C)=C([C@@H](OC(C)=O)C(=O)[C@]56C)C7(C)C)cc3)C3COC(=O)C32)OCO4)cc(C)c1O (some centres not stated) | inactive: 18.5 µM |
| CSc1nc(NC2OC(CO)C(O)C(O)C2O)c(N)c(=O)n1C (configuration not stated) | inactive: > 100 µM |
| Oc1ccc(-c2nn3c(CCCCCCCCc4nnc5sc(-c6ccc(O)cc6)nn45)nnc3s2)cc1 | inactive: > 100 µM |
| CCOC(=O)C(Cl)(Cl)/S(=N\S(=O)(=O)c1ccccc1)NC(=O)c1ccccc1 (configuration not stated) | inactive: > 100 µM |
| COc1ccc(NC(=O)Oc2cc(C)c3ccc(=O)cc-3o2)c(OC)c1.COc1ccc(NC(=O)Oc2ccc3c(C)cc(=O)oc3c2)c(OC)c1 | inactive: > 100 µM |
| CCC(C)Cn1c(C)nc2c1C(=O)c1ccccc1C2=O (configuration not stated) | inactive: 50.2 µM |
| O=C1Nc2ccc(Cl)cc2/C1=C\c1c(Cl)nc2sccn12 | active: < 0.01 µM |
| N#C/C(=C1\OC(=N)C(c2ccc(Cl)cc2)=C1O)c1ccc(Cl)cc1 | inactive: 21.2 µM |
| CC(C)=CCC[C@@H](C)C1=C(O)C(=O)C(C)=C(c2c(I)c(=O)n(C)c(=O)n2C)C1=O | inactive: > 100 µM |
| O=C(O)[C@H](c1ccccc1)[C@@H](C(=O)O)c1ccccc1 | inactive: > 100 µM |
| COc1ccccc1NC(=O)CC(=O)N1N=C(c2ccccc2)C(/N=N/c2ccc(Cl)cc2)C1=O (configuration not stated) | inactive: 53.1 µM |
| COc1cc(OC)cc(Oc2nc3ccccc3nc2C(=O)O)c1 | inactive: > 100 µM |
| Cc1cn2c(=O)c3ccccc3nc2s1 | inactive: > 100 µM |

| Compound | GI50 |
| --- | --- |
| NC(=O)c1cc2cc(Cl)cc(Cl)c2o/c1=N\c1ccc(F)cc1 | inactive: 13.6 µM |
| [N-]=[N+]=CC(=O)OC1CCOCC1 | inactive: > 100 µM |
| Clc1ccccc1CN1COc2c(cc(Cl)c3cccnc23)C1 | inactive: 2.9 µM |
| COC(=O)C(c1n[nH]c2ccccc12)C(C(=O)OC)c1n[nH]c2ccccc12 (configuration not stated) | inactive: > 100 µM |
| COC(=O)OCC1OC(N2C(=O)NC(=O)C(Br)C2N=[N+]=[N-])CC1OC(=O)OC (configuration not stated) | inactive: > 100 µM |
| COC(=O)C1=NN2c3ccccc3C(=O)OCCC2(C)C1 (configuration not stated) | inactive: > 100 µM |
| COc1ccc2[nH]c3c(c2c1)CC(=O)N1CCCC(CC3O)C1 (configuration not stated) | inactive: > 100 µM |
| CC[C@@]1(O)C(=O)OCc2c1cc1n(c2=O)Cc2c-1nc1ccccc1c2/C=N\NC(=O)C(N)Cc1c[nH]cn1 (some centres not stated) | inactive: 2.29 µM |
| CS(=O)(=O)C1S(=O)(=O)OCCOS1(=O)=O | inactive: > 100 µM |
| CN1C(=O)c2ccccc2NC(=O)C12O[C@@H]2c1cccc(O)c1 (some centres not stated) | inactive: > 100 µM |
| CCN(CCN(CC)C(=O)NC)C(=O)NC | inactive: > 100 µM |
| COC(=O)C(C(=O)C(=O)Nc1cccc(C)c1)C1=NC(N)SS1 (configuration not stated) | inactive: > 100 µM |
| COC(=O)CC(C(C(=O)OC)C(=O)OC)N1C(=O)OCC1c1ccccc1 (configuration not stated) | inactive: > 100 µM |
| COc1ccc(C2[C@@H](Cl)C(=O)N2c2ccc(OC)cc2)cc1 (some centres not stated) | inactive: 83.2 µM |
| CC(=O)Oc1ccc(/C=C/C(=O)OCCCOC(=O)/C=C/c2ccc(OC(C)=O)c(OC(C)=O)c2)cc1OC(C)=O | inactive: > 100 µM |
| COc1cc(/C=C2/C(=O)N(C(=O)c3ccccc3O)N=C2C)cc(OC)c1OC | inactive: 5.3 µM |
| CC(C)(C)OC(=O)Nc1nnc(S(N)(=O)=O)s1 | inactive: > 100 µM |
| Clc1ccc(OCc2nnc(CCCCCCCCc3nnc(COc4ccc(Cl)cc4Cl)n3Nc3ccccc3)n2Nc2ccccc2)c(Cl)c1 | inactive: 25.5 µM |
| C=C1[C@H](OCC(C)C)[C@@H](O)[C@@H](OC(=O)c2cccnc2)C(C)(C)/C=C/[C@H](C)[C@H](OC(C)=O)[C@@]2(O)C[C@@](C)(OC(C)=O)[C@H](OC(=O)c3ccccc3)[C@@H]2[C@H]1OC(C)=O | inactive: > 3.05 µM |

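Briefly, cells in 96-well plates were exposed to five compound concentrations for 48 h, and endpoints were estimated by linear interpolation. Here, GI50 denotes the concentration required for 50% inhibition of growth.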 Calls of active or inactive are those of the source. No stated cut-off is given here; in the data, active = GI50 up to about 1.1 µM and inactive = higher.
